Test results as given in patent US20260146097A1 (TENTARIX BIOTHERAPEUTICS, published 2026).

How the values were obtained:
[1] = biological target: T1, IL2Rs (IL2Rgamma/IL2Rbeta) on preactivated human PBMCs / CD8+ T cells (human, UniProt P14784 27-551; P31785 23-369); assay: cell-based or functional assay
T1 sequence (looked up) 1: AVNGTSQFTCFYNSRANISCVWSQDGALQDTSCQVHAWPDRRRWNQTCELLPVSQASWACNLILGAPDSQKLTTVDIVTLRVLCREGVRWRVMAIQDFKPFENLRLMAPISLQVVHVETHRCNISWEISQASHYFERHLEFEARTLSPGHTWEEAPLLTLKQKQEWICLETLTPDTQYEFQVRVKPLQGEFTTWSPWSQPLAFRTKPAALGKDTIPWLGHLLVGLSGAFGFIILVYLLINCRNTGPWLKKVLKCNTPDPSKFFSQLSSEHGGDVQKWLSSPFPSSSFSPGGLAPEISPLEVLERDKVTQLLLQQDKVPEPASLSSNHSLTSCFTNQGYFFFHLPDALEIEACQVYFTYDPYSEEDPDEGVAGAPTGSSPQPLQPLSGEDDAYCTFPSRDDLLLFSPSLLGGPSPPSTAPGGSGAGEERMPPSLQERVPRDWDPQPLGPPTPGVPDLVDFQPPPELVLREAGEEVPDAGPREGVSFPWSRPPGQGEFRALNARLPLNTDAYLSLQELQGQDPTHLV
T1 sequence (looked up) 2: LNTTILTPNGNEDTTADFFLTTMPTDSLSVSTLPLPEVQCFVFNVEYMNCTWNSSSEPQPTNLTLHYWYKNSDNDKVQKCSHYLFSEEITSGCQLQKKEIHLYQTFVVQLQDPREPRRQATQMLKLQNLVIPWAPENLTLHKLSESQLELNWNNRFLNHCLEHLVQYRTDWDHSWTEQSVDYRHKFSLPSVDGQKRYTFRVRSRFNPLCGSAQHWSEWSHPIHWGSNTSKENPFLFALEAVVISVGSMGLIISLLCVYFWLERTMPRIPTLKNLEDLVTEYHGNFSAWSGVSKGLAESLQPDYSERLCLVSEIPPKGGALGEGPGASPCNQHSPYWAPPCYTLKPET

[2] = biological target: T1, IL2Rs (IL2Rgamma/IL2Rbeta) on …; assay: cell-based or functional assay; remark: listed apart in the source

B1: TNRX-257 (other)
heavy 1: EVQLVESGGGVVRPGGSLRLSCCASGFTFDDYGMSWVRRAPGKGLEWVAGINWNGGSTGYADSVKGRFTISRDNEKNCLYLQMNSLRAEDTALYHCASATSGTAFDIWGQGTMVTVSSPPGGEVQLVQSGAEVKKPGACVKISCKVSGYTFTRYYMHWVQRAPGKGLEWIGLVDPEDGETIYAEKFQGRVTITADTSTDTAYMELCSLRSEDTAVYYCATDFVKLDFSLSFQHWGQGTLVTVSSPPGGQGQGGQGGGQGGGQVQLVESGGGVVQPGRSLRLSCAASGFTFSSYGMHWVRQAPGKGLEWVAVIWYDGSNKYYADSVKGRFTISRDNSKNTLYLQMNSLRAEDTAVYYCAREWAVASWDYGMDVWGQGTTVTVSSASTKGPSVFPLAPSSKSTSGGTAALGCLVKDYFPEPVTVSWNSGALTSGVHTFPAVLQSSGLYSLSSVVTVPSSSLGTQTYICNVNHKPSNTKVDKKVEPKSCDKTHTCPPCPAPEAAGGPSVFLFPPKPKDTLMISRTPEVTCVVVDVSHEDPEVKFNWYVDGVEVHNAKTKPREEQYNSTYRVVSVLTVLHQDWLNGKEYKCAVSNKALPAPIEKTISKAKGQPREPQVYTLPPSREEMTKNQVSLTCLVEGFYPSDIAVEWESNGQPENNYKTTPPVLDSDGSFFLYSDLTVDKSRWQQGNVFSCSVMHEALHNHYTQESLSLSPGK
heavy 2: QVQLVESGGGVVQPGRSLRLSCAASGFTFSSYGMHWVRQAPGKGLEWVAVIWYDGSNKYYADSVKGRFTISRDNSKNTLYLQMNSLRAEDTAVYYCAREWAVASWDYGMDVWGQGTTVTVSSASTKGPSVFPLAPSSKSTSGGTAALGCLVKDYFPEPVTVSWNSGALTSGVHTFPAVLQSSGLYSLSSVVTVPSSSLGTQTYICNVNHKPSNTKVDKKVEPKSCDKTHTCPPCPAPEAAGGPSVFLFPPKPKDTLMISRTPEVTCVVVDVSHEDPEVKFNWYVDGVEVHNAKTKPREEQYNSTYRVVSVLTVLHQDWLNGKEYKCAVSNKALPAPIEKTISKAKGQPREPQVYTLPPSRKKMTKNQVSLTCLVKGFYPSDIAVEWESNGQPENNYKTTPPVLKSDGSFFLYSKLTVDKSRWQQGNVFSCSVMHEALHNHYTQKSLSLSPGK
light: [not shown - about 100 residues][not shown - about 120 residues]
- pSTAT5 on LAG3+ CD8+ T cells compared to LAG3- CD8+ T cells [1]: > 1000 fold
- pSTAT5 EC50 [2]: 0.67 nM
- pSTAT5 EMAX (Mean Fluorescence Intensity) [2]: 61000 Mean Fluorescence Intensity

B2: TNRX-257_GS_AA_KH (other)
heavy 1: EVQLVESGGGVVRPGGSLRLSCCASGFTFDDYGMSWVRRAPGKGLEWVAGINWNGGSTGYADSVKGRFTISRDNEKNCLYLQMNSLRAEDTALYHCASATSGTAFDIWGQGTMVTVSSPPGGEVQLVQSGAEVKKPGACVKISCKVSGYTFTRYYMHWVQRAPGKGLEWIGLVDPEDGETIYAEKFQGRVTITADTSTDTAYMELCSLRSEDTAVYYCATDFVKLDFSLSFQHWGQGTLVTVSSPPGGSGGGGSGGGGSGGQVQLVESGGGVVQPGRSLRLSCAASGFTFSSYGMHWVRQAPGKGLEWVAVIWYDGSNKYYADSVKGRFTISRDNSKNTLYLQMNSLRAEDTAVYYCAREWAVASWDYGMDVWGQGTTVTVSSASTKGPSVFPLAPSSKSTSGGTAALGCLVKDYFPEPVTVSWNSGALTSGVHTFPAVLQSSGLYSLSSVVTVPSSSLGTQTYICNVNHKPSNTKVDKKVEPKSCDKTHTCPPCPAPEAAGGPSVFLFPPKPKDTLMISRTPEVTCVVVDVSHEDPEVKFNWYVDGVEVHNAKTKPREEQYNSTYRVVSVLTVLHQDWLNGKEYKCKVSNKALPAPIEKTISKAKGQPREPQVCTLPPSREEMTKNQVSLWCLVKGFYPSDIAVEWESNGQPENNYKTTPPVLDSDGSFFLYSKLTVDKSRWQQGNVFSCSVMHEALHNHYTQKSLSLSPGK
heavy 2: B1 heavy 2 with A327K, S359C, K361E, K362E, T371S, L373A, K404D, Y412V
light: [not shown - about 100 residues][not shown - about 120 residues]
- pSTAT5 EC50 [2]: 0.54 nM
- pSTAT5 EMAX (Mean Fluorescence Intensity) [2]: 62000 Mean Fluorescence Intensity

B5: TNRX-257_DS_N297G (other)
heavy 1: B1 heavy 1 with A500L, A501L, L508C, N563G, A588K, K600C
heavy 2: B1 heavy 2 with A239L, A240L, L247C, N302G, A327K, K339C
light: [not shown - about 100 residues][not shown - about 120 residues]
- pSTAT5 EC50 [2]: 1.63 nM
- pSTAT5 EMAX (Mean Fluorescence Intensity) [2]: 61000 Mean Fluorescence Intensity

B6: TNRX-257_AA (other)
heavy 1: B1 heavy 1 with A588K
heavy 2: B1 heavy 2 with A327K
light: [not shown - about 100 residues][not shown - about 120 residues]
- pSTAT5 EC50 [2]: 0.82 nM
- pSTAT5 EMAX (Mean Fluorescence Intensity) [2]: 63000 Mean Fluorescence Intensity

Continued, values first:

- pSTAT5 EC50 [2]: 0.72 nM
- pSTAT5 EMAX (Mean Fluorescence Intensity) [2]: 62000 Mean Fluorescence Intensity
B3: TNRX-257_KH (other)
heavy 1: B1 heavy 1 with Y615C, T632W, E636K, D675K, E705K
heavy 2: B1 heavy 2 with S359C, K361E, K362E, T371S, L373A, K404D, Y412V
light: [not shown - about 100 residues][not shown - about 120 residues]

- pSTAT5 EC50 [2]: 0.83 nM
- pSTAT5 EMAX (Mean Fluorescence Intensity) [2]: 60000 Mean Fluorescence Intensity
B4: TNRX-257_GS_KH (other)
heavy 1: B2 heavy 1 with K588A
heavy 2: B1 heavy 2 with S359C, K361E, K362E, T371S, L373A, K404D, Y412V
light: [not shown - about 100 residues][not shown - about 120 residues]

Positions count from the first letter of the chain named. Each block holds one binder with its values, some of them ahead of it.
